# Measured values from PMC6919601, “Identification of Plasmodium dipeptidyl aminopeptidase allosteric inhibitors by high throughput screening” (PLoS ONE, 2019).
# Screen size: about 110,000 compounds; about 230 (0.21%) showed an effect of 50% or more. The list shows a part of the results.
# Target: DPAP1 (Plasmodium falciparum, UniProt Q8IIJ9)
# Assay: primary screen, percent inhibition; read by cleavage of a fluorogenic dipeptide substrate; higher = more effect of the substance
# Parameters: species or system P. falciparum D10 trophozoite lysates; single well
# 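Further: 30 min substrate incubation versus DMSO and 10 µM JCP410 controls.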
# DPAP1, sequence (Q8IIJ9 whole entry, looked up): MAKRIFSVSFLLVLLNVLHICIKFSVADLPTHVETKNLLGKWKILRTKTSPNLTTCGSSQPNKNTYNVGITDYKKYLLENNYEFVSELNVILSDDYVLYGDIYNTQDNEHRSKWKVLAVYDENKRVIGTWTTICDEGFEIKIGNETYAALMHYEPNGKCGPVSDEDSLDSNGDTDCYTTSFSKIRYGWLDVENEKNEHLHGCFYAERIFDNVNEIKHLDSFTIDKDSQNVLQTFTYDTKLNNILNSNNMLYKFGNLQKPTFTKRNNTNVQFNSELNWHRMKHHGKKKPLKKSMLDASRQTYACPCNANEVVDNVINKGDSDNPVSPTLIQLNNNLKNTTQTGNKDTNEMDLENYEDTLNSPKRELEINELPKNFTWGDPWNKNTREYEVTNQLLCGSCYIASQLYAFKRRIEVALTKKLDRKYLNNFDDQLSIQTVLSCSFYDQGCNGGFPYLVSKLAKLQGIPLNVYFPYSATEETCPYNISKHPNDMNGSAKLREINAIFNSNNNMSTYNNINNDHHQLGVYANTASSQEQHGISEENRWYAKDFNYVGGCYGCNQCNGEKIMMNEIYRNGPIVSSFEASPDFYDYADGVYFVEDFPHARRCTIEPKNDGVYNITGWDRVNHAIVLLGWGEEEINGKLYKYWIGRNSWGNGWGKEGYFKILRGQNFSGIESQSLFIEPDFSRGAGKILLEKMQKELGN
row,Compound,% Inhibition @ 10 uM [%]
1,c1ccc(CN2CCSCC2)nc1,-1.78
2,CCCC[C@H](NC(=O)[C@H](Cc1ccc2ccccc2c1)NC(=O)c1ccc(CN)cc1)C(=O)CO,-0.778
3,Cc1ccc(-c2[nH]ncc2CNC23CC4CC(CC(C4)C2)C3)cc1C,2.31
4,Cc1ccc(C2C(C#N)=C(N)Oc3c2c(C)nn3-c2cccc(F)c2)cc1 (centres unmarked),0.866
5,Cc1cccc(N(CC(=O)N2CCN(Cc3ccccc3)CC2)S(=O)(=O)c2ccccc2)c1,4.49
6,COc1ccc(C2Oc3c(OC)cccc3C3CC(c4ccco4)=NN32)cc1 (centres unmarked),15.8
7,Clc1ccccc1OCCCn1ccnc1,-0.351
8,CCOC(=O)c1cnn(-c2ccccc2)c1NC(=O)CSC1=NC(=O)C(c2ccccc2)C(=O)N1 (centres unmarked),-0.597
9,O=P(O)(CCc1ccccc1)CN1CCCCC1,-3.27
10,O=C(O)CCC(=O)NCCC(c1ccccc1)c1ccccc1,-6.65
11,O=C(Nc1cccnc1)c1coc(=O)c2ccccc12,-2.4
12,O=C(Nc1ccc(Br)cc1)Nc1ccc2ccccc2c1,-6.25
13,Cc1cc(C)c(C)c(S(=O)(=O)NCc2ccc(C(=O)Nc3cccnc3)cc2)c1C,-1.51
14,CCCS(=O)(=O)c1c(S(=O)(=O)CCC)c2c(C)cccn2c1C(=O)OC,4.6
15,COc1ccc(OC)c(C2CC(=O)C3=C(C2)NC(=O)CC3c2cccc(Cl)c2Cl)c1 (centres unmarked),2.54
16,O=C(O)c1ccc(COc2ccccc2CO)cc1,-3.23
17,CCCNC(=O)C1=CC(c2ccc(C)cc2)=NS(=O)(=O)N1C,-4.68
18,Cc1[nH]c(-c2ccc(F)cc2)cc1C(=O)N1CCCC(C)C1 (centres unmarked),-2.52
19,O=C(Nc1cccnc1)c1ccc(COc2cccc3ccccc23)cc1,0.413
20,CC(C)(C)C(=O)N1CCCC(C(=O)Nc2sc3c(c2C(N)=O)CCCC3)C1 (centres unmarked),8.37
21,COc1cc(C(=O)NCCc2ccccc2)cc(OC)c1OC,1.33
22,Cc1ccnc(SC2CC(=O)N(c3ccccc3)C2=O)n1 (centres unmarked),2.36

row,Compound,% Inhibition @ 10 uM [%]
1,O=C(O)COc1ccc(Br)cc1/C=C1/NC(=O)NC1=O,3.15
2,CCC1CCC(N2CCOCC2)CC1 (centres unmarked),-3.15
3,N#CC1=C(N)Oc2c(oc(CO)cc2=O)C1c1ccc(OCc2ccccc2)cc1 (centres unmarked),2.38
4,COc1ccc(C(=O)C2=C(O)C(=O)N(CCCn3ccnc3)C2c2ccccn2)cc1 (centres unmarked),-15.1
5,COC(=O)[C@H](C)NC(=O)[C@@H]1CCCN1C#N,0.744
6,CC(C)c1ccc(C2CC(=O)Nc3ccccc3S2)cc1 (centres unmarked),-4.82
7,CCOc1ccccc1CNC(=O)Cn1ncn2c(cc3sc(C)cc32)c1=O,0.0198
8,O=C(CCC(=O)c1ccc(Oc2ccccc2)cc1)Nc1ccc(F)cc1,-0.478
9,COc1ccc(C(=N)NOC(=O)Cc2cccs2)cc1,-3.13
10,Cc1ccc2c(c1)-c1onc(C(=O)NC3CCCc4ccccc43)c1CO2 (centres unmarked),-2.87
11,COc1ccc(C2CC(=O)c3cnc(NCCCOC(C)C)nc3C2)cc1 (centres unmarked),2.24
12,Cn1c(=O)c2c(nc(NCc3ccc4c(c3)OCO4)n2C)n(C)c1=O,0.0289
13,CCCC(=O)c1ccc(N2CCN(C)CC2)c(F)c1,2.93
14,CC(C)CS(=O)(=O)C1=NSC2=NC(=O)/C(=C\c3ccc(OS(C)(=O)=O)cc3)C(=N)N21,1.85
15,O=C(O)Cn1nc2c3c(cccc31)C(=O)c1ccccc1-2,5.88
16,Cc1cc(O)nc(SCC(C)C)n1,4.21
17,O=C(COc1cccc(Cl)c1)Nc1cc(Cl)cc(Cl)c1,1.83
18,CCOCCCNC(=O)Cn1ncc2c3ccccc3n(Cc3ccccc3)c2c1=O,0.137
19,Cc1noc2ncnc(NCc3ccco3)c12,0.708
20,CCCN1CCN(C(=O)c2ccc(CS(=O)c3ccc(OC)cc3)o2)CC1 (centres unmarked),-1.86
21,Oc1ccc(CNc2ccc(Cl)cc2)c2cccnc12,-15.4
22,CCc1cc2c(N3CCN(c4ccccn4)CC3)ncnc2s1,-2.42

row,Compound,% Inhibition @ 10 uM [%]
1,CCN1CCN(c2ccc(NC(=O)Cc3ccccc3)cc2Cl)CC1,2.03
2,CCOc1ccc2nc3sc(C(=O)Nc4ccc(C(C)=O)cc4)c(N)c3cc2c1,-4.12
3,CN(Cc1ccccc1)C(=O)c1ccc(C(C)(C)C)cc1,8.01
4,COc1ccc(OC)c(NC(=O)c2ccc(OC(F)F)c(OC)c2)c1,2.08
5,Cc1cc(-c2ccc(S(=O)(=O)N(C)Cc3ccccc3)cc2)on1,0.453
6,COc1ccc2c(c1)N1CCN=C1N2C,-3.44
7,O=C(CCc1ccccc1)Nc1ccc(F)cc1F,3.53
8,COc1ccc(CCC(C)NC2CCCC2)cc1 (centres unmarked),-1.81
9,Cc1ccc(N2CCN(Cc3cccc(C(F)(F)F)c3)CC2)cc1,-3.57
10,COc1ccc(-c2cc(C(F)(F)F)n3nc(C(=O)O)cc3n2)cc1OC,0.512
11,O=C(O)CN1CCc2ccccc21,-3.58
12,COc1ccc(-c2[nH]nc3c2C(c2c[nH]nc2-c2ccc(F)cc2)C(C#N)=C(N)O3)cc1 (centres unmarked),-2.78
13,Nc1ccc(C(=O)Nc2ccc(OC(F)(F)C(F)F)c(NC(=O)c3ccc(N)cc3)c2)cc1,-5.28
14,CS(=O)(=O)N(CC(=O)NC1CCCCC1)c1cccc2ccccc12,-3.04
15,Cc1cc(C(=O)N2CCN(Cc3ccccc3)CC2)c2c(C)nn(-c3ccccc3Cl)c2n1,2.12
16,COc1ccc(CNC(=O)CNS(=O)(=O)c2ccc(Br)cc2)cc1,-2.09
17,C=CCn1c(-c2ccc(OC)cc2)nc2ccccc21,-2.28
18,CC(C)OCCCN1C(=O)c2ccccc2C1C(=O)NC1CCCCC1 (centres unmarked),3.66
19,O=C(CN(c1ccc(F)cc1)S(=O)(=O)c1ccccc1)N1CCc2ccccc2C1,-2.99
20,COC(=O)c1cc(Cl)c(NC(=O)c2ccc(F)cc2)cc1OC,6.49
21,CCn1ncc(C2C(C#N)=C(N)OC3=C2C(=O)CC(C)(C)C3)c1C (centres unmarked),1.03
